US11178870B2 (priority 2017, dated 2021)

Tested on: Colletotrichum orbiculare
Assay: not given
Conditions: in vivo

Compound	Test H control value
CCn1c(-c2c(F)cc(OC)cc2F)c(-n2cc(Br)c(C)n2)cc(Br)c1=O [Compound 151]	L (key: H shows the control value more than 50%; L shows the control value of 50% or less)
CCn1c(-c2ccc(F)cc2C)c(-n2cc(Cl)cn2)cc(Cl)c1=O [Compound 170]	H (key: H shows the control value more than 50%; L shows the control value of 50% or less)
O=c1c(Br)cc(-c2cccnc2Cl)c(-c2c(F)cccc2F)n1CC(F)F [Compound 59]	H (key: H shows the control value more than 50%; L shows the control value of 50% or less)
CCn1c(-c2c(F)cc(F)cc2F)c(-n2cc(C)cn2)cc(Br)c1=O [Compound 101]	H (key: H shows the control value more than 50%; L shows the control value of 50% or less)
CCn1c(-c2c(F)cccc2F)c(-n2cc(Cl)cn2)ccc1=O [Compound 52]	H (key: H shows the control value more than 50%; L shows the control value of 50% or less)
CCn1c(-c2c(F)cc(F)cc2F)c(-n2cc(Br)cn2)cc(Br)c1=O [Compound 77]	H (key: H shows the control value more than 50%; L shows the control value of 50% or less)
CCn1c(-c2ccc(F)cc2F)c(-n2ncc(C)c2Cl)cc(Cl)c1=O [Compound 182]	H (key: H shows the control value more than 50%; L shows the control value of 50% or less)
CCn1c(-c2ccc(F)cc2Cl)c(-n2cc(Cl)cn2)ccc1=O [Compound 156]	H (key: H shows the control value more than 50%; L shows the control value of 50% or less)
CCn1c(-c2c(F)cc(F)cc2F)c(-n2cccn2)cc(Cl)c1=O [Compound 84]	H (key: H shows the control value more than 50%; L shows the control value of 50% or less)
CCn1c(-c2ccc(F)cc2C)c(-n2cc(Cl)cn2)ccc1=O [Compound 168]	H (key: H shows the control value more than 50%; L shows the control value of 50% or less)
CCn1c(-c2ccc(F)cc2Cl)c(-c2ocnc2C)cc(Cl)c1=O [Compound 38]	L (key: H shows the control value more than 50%; L shows the control value of 50% or less)
CCn1c(-c2c(F)cc(OC)cc2F)c(-c2c(Cl)cnn2C)cc(Cl)c1=O [Compound 29]	H (key: H shows the control value more than 50%; L shows the control value of 50% or less)
CCn1c(-c2c(F)cc(OC)cc2F)c(-c2ocnc2F)cc(Cl)c1=O [Compound 127]	H (key: H shows the control value more than 50%; L shows the control value of 50% or less)
CCn1c(-c2c(F)cc(OC)cc2F)c(C2OCCCO2)cc(Cl)c1=O [Compound 10]	H (key: H shows the control value more than 50%; L shows the control value of 50% or less)
CCn1c(-c2ccc(F)cc2C)c(-n2cc(Cl)cn2)cc(Br)c1=O [Compound 171]	L (key: H shows the control value more than 50%; L shows the control value of 50% or less)
CCn1c(-c2ccc(F)cc2Cl)c(-c2cnco2)cc(Cl)c1=O [Compound 32]	L (key: H shows the control value more than 50%; L shows the control value of 50% or less)
CCn1c(-c2c(F)cc(F)cc2F)c(-n2cccc2)cc(Cl)c1=O [Compound 132]	H (key: H shows the control value more than 50%; L shows the control value of 50% or less)
CCn1c(-c2ccc(F)cc2Br)c(-n2cc(Cl)cn2)cc(Br)c1=O [Compound 166]	H (key: H shows the control value more than 50%; L shows the control value of 50% or less)
O=c1ccc(-c2cccnc2Cl)c(-c2c(F)cccc2F)n1CC(F)F [Compound 56]	H (key: H shows the control value more than 50%; L shows the control value of 50% or less)
CCn1c(-c2c(F)cc(F)cc2F)c(-n2cc(Cl)c(C)n2)cc(Cl)c1=O [Compound 142]	H (key: H shows the control value more than 50%; L shows the control value of 50% or less)
O=c1c(Br)cc(-c2cccnc2Cl)c(-c2c(F)cccc2F)n1CC(F)(F)F [Compound 64]	L (key: H shows the control value more than 50%; L shows the control value of 50% or less)
CCn1c(-c2c(F)cccc2F)c(-c2ccsc2Br)cc(Br)c1=O [Compound 54]	L (key: H shows the control value more than 50%; L shows the control value of 50% or less)
CCn1c(-c2c(F)cc(F)cc2F)c(-n2c(C)ccc2C)cc(Cl)c1=O [Compound 125]	H (key: H shows the control value more than 50%; L shows the control value of 50% or less)
COc1cc(F)c(-c2c(-n3cc(Cl)cn3)cc(Br)c(=O)n2C)c(F)c1 [Compound 178]	H (key: H shows the control value more than 50%; L shows the control value of 50% or less)
CCn1c(-c2ccc(OC)cc2F)c(-n2cc(Cl)cn2)cc(Cl)c1=O [Compound 149]	H (key: H shows the control value more than 50%; L shows the control value of 50% or less)
CCn1c(-c2c(F)cccc2F)c(-c2ocnc2Br)cc(Cl)c1=O [Compound 49]	H (key: H shows the control value more than 50%; L shows the control value of 50% or less)
CCn1c(-c2c(F)cccc2F)c(-c2cccnc2Cl)cc(C)c1=O [Compound 66]	H (key: H shows the control value more than 50%; L shows the control value of 50% or less)
CCn1c(-c2c(F)cc(OC)cc2F)c(-c2ocnc2Cl)cc(Cl)c1=O [Compound 115]	H (key: H shows the control value more than 50%; L shows the control value of 50% or less)

Tested on: Colletotrichum orbiculare
Assay: whole plant or invertebrate
Conditions: in Cucumis sativus, read-out: Test H control value

Compound	pest or weed control at 250 ppm
CCn1c(-c2c(F)cc(F)cc2F)c(-n2cncn2)cc(Cl)c1=O [compound 34, 3-chloro-1-ethyl-5-(1H-1,2,4-triazol-1-yl)-6-(2,4,6-trifluorophenyl)pyridin-2(1H)-one]	> 50%
CCn1c(-c2c(F)cc(F)cc2F)c(-n2cc(Cl)cn2)cc(Br)c1=O [compound 71, 5-(4-chloro-1H-pyrazol-1-yl)-1-ethyl-3-bromo-6-(2,4,6-trifluoro-phenyl)pyridin-2(1H)-one]	> 50%
CCn1c(-c2c(F)cccc2F)c(-c2ocnc2C)cc(Cl)c1=O [compound 43, 3-chloro-6-(2,6-difluorophenyl)-1-ethyl-5-(4-methyloxazol-5-yl)pyridin-2(1H)-one]	> 50%
CCn1c(-c2c(F)cc(F)cc2F)c(-n2ncnc2Br)cc(Cl)c1=O [compound 35, 5-(5-bromo-1H-1,2,4-triazol-1-yl)-3-chloro-1-ethyl-6-(2,4,6-trifluorophenyl)pyridin-2(1H)-one]	> 50%
CCn1c(-c2c(F)cc(F)cc2F)c(-n2cc(Cl)cn2)cc(I)c1=O [compound 140, 5-(4-chloro-1H-pyrazol-1-yl)-1-ethyl-3-iodo-6-(2,4,6-trifluoro-phenyl)pyridin-2(1H)-one]	> 50%
CCn1c(-c2c(F)cc(F)cc2F)c(-c2ocnc2Cl)cc(Cl)c1=O [compound 112, 3-chloro-5-(4-chlorooxazol-5-yl)-1-ethyl-6-(2,4,6-trifluoro-phenyl)pyridin-2(1H)-one]	> 50%
CCN1C(=O)CCC(c2cccs2)=C1c1c(F)cccc1F [compound 2, 6-(2,6-difluorophenyl)-1-ethyl-5-(thiophen-2-yl)-3,4-dihydropyridin-2(1H)-one]	> 50%
CCn1c(-c2c(F)cc(F)cc2F)c(-c2c(Br)cnn2C)cc(Cl)c1=O [compound 21, 5-(4-bromo-1-methyl-1H-pyrazol-5-yl)-3-chloro-1-ethyl-6-(2,4,6-trifluorophenyl)pyridin-2(1H)-one]	> 50%
CCn1c(-c2c(F)cc(F)cc2F)c(-c2nn(C)cc2Br)cc(Cl)c1=O [compound 24, 5-(4-bromo-1-methyl-1H-pyrazol-3-yl)-3-chloro-1-ethyl-6-(2,4,6-trifluorophenyl)pyridin-2(1H)-one]	> 50%
CCn1c(-c2c(F)cc(F)cc2F)c(-c2ccnn2C)cc(Cl)c1=O [compound 20, 3-chloro-1-ethyl-5-(1-methyl-1H-pyrazol-5-yl)-6-(2,4,6-trifluorophenyl)pyridin-2(1H)-one]	> 50%
CCn1c(-c2c(F)cccc2F)c(-c2ccc(Cl)s2)ccc1=O [compound 6, 5-(5-chlorothiophen-2-yl)-6-(2,6-difluorophenyl)-1-ethylpyridin-2(1H)-one]	< 50%
CCn1c(-c2c(F)cccc2F)c(-c2ccc(Cl)s2)cc(Cl)c1=O [compound 7, 3-chloro-5-(5-chlorothiophen-2-yl)-6-(2,6-difluorophenyl)-1-ethylpyridin-2(1H)-one]	< 50%
CCN1C(=O)CCC(n2cccn2)=C1c1c(F)cc(F)cc1F [compound 25, 1-ethyl-5-(1H-pyrazol-1-yl)-6-(2,4,6-trifluorophenyl)-3,4-dihydropyridin-2(1H)-one]	> 50%
CCn1c(-c2c(F)cc(F)cc2F)c(-n2cc(Br)cn2)cc(Cl)c1=O [compound 70, 5-(4-bromo-1H-pyrazol-1-yl)-3-chloro-1-ethyl-6-(2,4,6-trifluorophenyl)pyridin-2(1H)-one]	< 50%
CCn1c(-c2c(F)cc(OC)cc2F)c(-c2c(Br)cnn2C)cc(Cl)c1=O [compound 23, 5-(4-bromo-1-methyl-1H-pyrazol-5-yl)-3-chloro-6-(2,6-difluoro-4-methoxyphenyl)-1-ethylpyridin-2(1H)-one]	> 50%
CCn1c(-c2c(F)cc(F)cc2F)c(-n2cccn2)ccc1=O [compound 26, 1-ethyl-5-(1H-pyrazol-1-yl)-6-(2,4,6-trifluorophenyl)pyridin-2(1H)-one]	> 50%
CCn1c(-c2c(F)cc(F)cc2F)c(C2OCCCO2)cc(Cl)c1=O [compound 8, 3-chloro-5-(1,3-dioxan-2-yl)-1-ethyl-6-(2,4,6-trifluorophenyl)-pyridin-2(1H)-one]	< 50%
CCn1c(-c2c(F)cc(OC)cc2F)c(-n2cc(Br)cn2)cc(Cl)c1=O [compound 72, 5-(4-bromo-1H-pyrazol-1-yl)-3-chloro-6-(2,6-difluoro-4-methoxyphenyl)-1-ethylpyridin-2(1H)-one]	> 50%
